Results taken from the supplement of paper PMC5499739.
The full ranking holds about 16,000 sequences; the median of “Z-score” is about -0.37, and the highest 2% start at about 3.2. The list shows a part of the results.

Test system: RBM10 RRM1-ZnF (GST-tagged construct)
Experiment: RNAcompete 7-mer binding Z-score; higher = stronger binding preference
Procedure, shortened: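 GST-tagged RBM10 constructs (20 pmol) were mixed with a designed pool of 241 399 RNAs up to 41 nt (1.5 nmol), transcribed from microarray-derived DNA templates. Mixing was in 1 ml Hepes pH 7.8 buffer with KCl, NaCl, glycerol, DTT, BSA and glutathione Sepharose beads. Binding ran 30 min at 4°C, followed by four 2-min washes at 4°C, and bound RNA was identified by microarray hybridisation. Each heptamer motif received a one-sided Z-score for enrichment across probes containing it.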

Sequence | RNAcompete 7-mer binding Z-score
UGAACGC | -0.123
ACACGUC | -0.561
GAUUUAA | -0.334
GCAGGCA | 0.495
CAUUCUA | -0.841
UUGAUUU | -0.652
CUUAUCU | -0.824
GGUACGG | 2.64
GAGAUUA | 0.306
UCUAGCA | -0.691
AUCACGC | -0.383
CCUAUUU | -0.98
AGCCCUA | -0.714
UAUUCUC | -0.72
GCUUGUC | -0.665
AAAUUCC | -0.867
UGCGAAC | -0.0999
AUCCUUA | -0.844
GACCCAC | -0.659
UUCGCAA | -0.743
AUACUCG | -0.62
UCAAGUG | -0.035
AAGUAAG | 0.761
UAUAAUA | -0.412
CACGGGG | 2.66

Sequence | RNAcompete 7-mer binding Z-score
CACGAAC | -0.626
CGCUGGC | -0.379
AUAGCGC | -0.457
UUACGUC | -0.535
UCUAUUG | -0.649
CUUCCCU | -0.824
UUAUUGC | -0.772
ACCGACG | -0.256
UAGAAGU | 0.342
CUGGCGU | -0.259
CCGCUCA | -0.805
UGCUAAA | -0.574
CUUCACA | -0.746
AACAGGG | 3.15
CCAUACG | -0.72
UUCUAAU | -0.766
CCUGUUU | -0.824
UUGGGUA | 2.33
GGACUGA | 0.914
UAGUUGA | 0.277
AGGCGUC | -0.00896
CCGCUAU | -0.75
CCAGACA | -0.529
GGCGAUG | 1.48
AUGGGAA | 3.97

Sequence | RNAcompete 7-mer binding Z-score
CCCAAUU | -0.691
UUCGCAG | -0.474
CAGGCAG | 0.725
CAUUCUC | -0.844
AGGUGGU | 2.18
CUGUGCA | -0.383
UGCAGCU | -0.223
UGUGGCC | 0.16
GCGCGUA | -0.171
GCAAUCC | -0.629
UGUCUUU | -0.6
CCCCAUG | -0.591
AGGAUCU | -0.334
AUUCGGU | -0.145
UAAUAUU | -0.607
AUGAUGC | -0.204
UAGUAAU | -0.23
AAGAUAU | -0.373
CCCGGUA | -0.139
ACUUUAU | -0.779
GAAUAUA | -0.0999
CCCAGUA | -0.623
GGCAAAC | 0.3
GGCAAGG | 2.89
GCACCUU | -0.659

Sequence | RNAcompete 7-mer binding Z-score
GGAAACG | 1.75
UGGUGCG | 1.73
CCGCCGC | -0.561
UACUUCC | -0.971
UACGAAC | -0.5
UAGGCUU | -0.246
UCCGUAA | -0.727
GUGCACC | -0.113
CGUAUAA | -0.243
UCUGGCG | -0.409
AUUGAAA | -0.292
CUAAAAG | -0.194
UGACUCC | -0.652
CCUACAU | -0.883
CACAUAU | -0.75
CGGUUUC | -0.168
UGUCGUG | -0.0967
GUUAGCG | 0.452
UAAAACC | -0.548
GUCGACC | -0.448
UCCUGCU | -0.876
GUACCUC | -0.519
CCUGGAG | 0.176
UGCAGCC | -0.474
CGUCGGG | 0.868

Sequence | RNAcompete 7-mer binding Z-score
GUCGUCG | 0.0463
UAGAGGU | 1.61
CACAAAA | -0.581
GACCGGA | 0.03
GCUAGGU | 1.08
GCCGAAG | -0.00571
UAAAAAC | -0.35
UGACACA | -0.373
AGACGUU | -0.552
UCGUAAU | -0.61
CUGUAGG | 0.3
GAUCGCG | -0.266
AACACGU | -0.353
CACAGUA | -0.314
CCCCACU | -0.571
ACGUCCA | -0.769
UUGCUCA | -0.652
UAGAUGA | 0.358
GCACUCU | -0.662
GAACACG | 0.235
UCCUUAC | -0.759
CUGAUUA | -0.698
AUCUACA | -0.568
AUACUUU | -0.88
CAAUAAU | -0.694

Sequence | RNAcompete 7-mer binding Z-score
ACUUGCA | -0.73
GGGCCCA | -0.155
GCUACUU | -0.717
GAAAAUG | 1.43
CUGCAUA | -0.535
AACGUAG | 0.605
ACCGCCU | -0.792
ACUUCCA | -0.802
CCGAGAA | -0.399
AUACGUU | -0.584
AGUCGGA | 0.787
AGUAGCG | 0.472
UUGAAUU | -0.552
GUCCUCU | -0.513
UAGCGCU | -0.519
GAGACAA | 0.407
AUCAAGA | -0.266
ACAGAUA | -0.431
CAUAUUU | -0.886
CCCCAUC | -0.474
AUCGCUU | -0.802
GCUCUCC | -0.626
AUUCCGU | -0.746
UGAGCGA | 1.23
GUGUGGA | 2.98

Sequence | RNAcompete 7-mer binding Z-score
GCGGAGA | 1.61
GGUUGGU | 2.56
ACCUGUC | -0.766
AGGUGAC | 1.45
UACUAAG | -0.285
CGCCCGG | -0.249
CCCCGGC | -0.145
CAUCGGG | 0.884
GGCGAGG | 2.8
UGUUUGU | 0.0658
GGGGAGA | 3.3
CGCAUCC | -0.694
CUAGUUA | -0.412
UCACGUC | -0.558
CUUCUAU | -0.841
AAUAAGU | -0.0902
UGUGGAG | 2.62
GUUAGAG | 1.18
AGGUGAA | 2.21
AUAGAUG | 0.543
CAGAGCU | -0.415
CUGCAGG | 0.417
CACUCAC | -0.617
UGUGCUG | 0.222
UCACAAU | -0.646

Sequence | RNAcompete 7-mer binding Z-score
UUCCAUC | -0.675
GGAAGCA | 1.5
UUUUGAG | -0.11
GCUAGGC | -0.0285
UUUUAGU | -0.558
UAGGUAA | 1.74
AAUCGAA | -0.181
CGUUUGA | -0.717
GCGUAUU | -0.22
GCUGAGG | 1.5
GUCUUGA | -0.724
ACGGCGU | -0.00246
UUCCGUC | -0.652
CAGUAGG | 1.58
CCUGCUA | -0.961
AAGCAAC | -0.191
UUAGGCG | 0.566
GGCGGCC | 0.456
GCAAAUU | -0.47
AUAGACU | -0.561
ACGGGUC | 1.19
AGUGCCC | -0.47
AAGUGAG | 1.24
CGCUCUU | -0.795
ACCCAGC | -0.587

Sequence | RNAcompete 7-mer binding Z-score
UACCUCU | -0.746
AUGAGAU | 0.241
CCAAUUU | -0.928
CGGGAAU | 1.68
AGCAAGC | -0.136
CGUUCUA | -0.811
AACUCAA | -0.555
GCCUUUA | -0.805
UUGUAUG | -0.113
UAUGCUC | -0.805
GUCCUGA | -0.506
UGUCUAC | -0.626
UCAACCA | -0.636
AGGUGUC | 0.508
CAAAUCA | -0.707
AUACCAU | -0.828
GGCGCAU | 0.183
GGUGAUA | 1.87
ACAGACG | 0.111
CCCGAUA | -0.659
CGAAUUC | -0.769
CAAACAC | -0.623
CAUUCUU | -0.789
CGAUAGA | -0.149
UCGGAUU | -0.279

Sequence | RNAcompete 7-mer binding Z-score
CAAUAUC | -0.668
AUGAAGU | 0.42
CCUCUGC | -0.665
GGCACUG | 0.709
CCAAGGC | -0.171
AAACGAU | -0.262
CAACUAU | -0.649
CCAGUUU | -0.831
UUAUUUU | -0.756
AGCACAG | -0.145
UCCGGAU | -0.0902
UUGACCG | -0.678
UUGUUUG | 0.0138
CACUUUC | -0.928
UGUUAAC | -0.552
AACGCCU | -0.886
CCCAAAA | -0.818
AGUUGAU | 0.212
CCGUUGA | -0.591
GAAUGCU | -0.184
AGCAUCG | -0.334
CGAGUCG | -0.301
UCCAUCC | -0.636
GCGCGCA | 0.0723
AUUUCAG | -0.613

Sequence | RNAcompete 7-mer binding Z-score
GUGUUGA | 0.846
GUGACAC | 0.0495
UACCCGU | -0.753
GGUAAAG | 3.32
AGUCUGG | 0.14
GACCCUU | -0.945
UAUCUCU | -0.74
CUAUUUA | -0.824
CACAACU | -0.766
CUACUAC | -0.769
AUUGUCU | -0.737
GUGCGCG | 1.16
GCAACAG | 0.173
CGACUGG | 0.602
ACUCCUG | -0.724
GUGGGGU | 4.71
AUUCACC | -0.74
CGCUCUC | -0.617
CCCGGUG | 0.105
AGGUAUA | 1.23
UCAUGUG | -0.22
CAUAGCU | -0.665
CCUAGCU | -0.753
UGCCAAA | -0.772
ACCUGGU | -0.509

Sequence | RNAcompete 7-mer binding Z-score
UGGGGAG | 3.36
CGUUGUU | -0.422
CAACGGU | 0.261
AGUAGGA | 2.8
CUAAUAC | -0.828
ACUCCGU | -0.785
AUUCCAA | -0.75
UCGAGAG | 0.0853
UACAGAG | 0.0755
AAGGUGC | 2.39
AGCUAGG | 1.29
GAUAGUG | 1.28
GUGGGCG | 3
AUAUAAC | -0.574
UUCGAGG | 0.202
UGUAACG | -0.227
CAGGUAU | 0.706
UACAGUC | -0.412
GAGUUCG | -0.181
UCCCAUC | -0.707
GGGUGUC | 2.7
GCUCGAG | -0.0512
UUACUCA | -0.72
CAGACUU | -0.828
GUGGUAC | 1.63

Sequence | RNAcompete 7-mer binding Z-score
CGCAAGC | -0.633
GUUUUGU | 0.41
AUCUGCU | -0.834
GCUACUG | -0.308
UGAGUUA | 0.0398
GCUUCCA | -0.698
GAUGAUC | -0.194
GCGACGG | 1.44
GUGACGG | 2.02
AAAUUAU | -0.503
CCCCUUC | -0.529
AUUGUGA | 0.309
AUGUCGU | -0.409
GGCUAAG | 0.465
CCUCCGU | -0.717
AUCACUC | -0.711
GUGCUAA | 0.153
CCGGUUC | -0.565
CAGGAAA | 0.94
CCUUCAC | -0.795
UCCUCAA | -0.854
AUACGUA | -0.201
GCACACA | -0.262
UUUUAUG | -0.613
CUGAUUU | -0.737

Sequence | RNAcompete 7-mer binding Z-score
GUAUUGU | -0.0772
GCCAUGU | -0.483
UUAUCAG | -0.399
UCCCACU | -0.694
ACUUAAG | -0.493
CCGAUAA | -0.532
UUAUAUC | -0.629
CGAGCGU | 0.0495
AACGAGC | 0.16
CCAGCGG | 0.404
GAGCGUU | 0.199
CGUCGUC | -0.279
GAGACCG | -0.0999
UUCCGCC | -0.756
AACCGGA | -0.0512
GUUACAG | 0.589
AGAUGAA | 1.5
UGGCGAU | 0.365
GGACCGC | -0.191
CCGACUC | -0.808
GGUGCAA | 1.25
UGUAAGG | 1.29
AAUGGAU | 2.64
AGCGUAG | 0.482
UGGUGGA | 2.86

Sequence | RNAcompete 7-mer binding Z-score
UGAGUAG | 0.946
UCUGUGA | -0.581
UGAACGG | 1.75
CUUUACG | -0.779
AGCGGUC | 0.131
GAGUGCC | -0.158
CAACUUG | -0.513
GUUAAGC | -0.194
CACGCCG | -0.35
UAUGCUA | -0.477
AAAUGCG | -0.0772
GUCGCUA | -0.243
ACAAGCC | -0.75
UGCUCGA | -0.532
CAGCAUG | -0.113
UUAAAGU | -0.565
CUAUUCA | -0.737
